Assay results from the RNAGym collection of RNA variant scans (doi:10.7554/elife.90254).
The source gives no read counts; variants with many changes may rest on few reads.

B1: LINE1-mini (parent)
chain: GGCAGAGCUCAACACAGCGUGGCAAAGUGGCUGUGGCUAGACUGCC

Variants of: B1
Assay: self-cleavage, relative activity (ratio to wild type); higher = more cleavage; in vitro, sequencing; the parent is a self-cleaving ribozyme

Variant | self-cleavage
G2C C13U G17C A39C | 0.13
G2C U20G C23G | 0.07
G2U C3U G17C U20A | 0.13
G2C U9A U34A G36C A39U A41G | 0.02
G2U A6G U9A U32A G33A | 0.03
G2C G7A C18A G19A | 0.92
G2U A6U C10U | 0.01
G2C A6G A16C G17C C23U A26C G44U | 0.09
G2U C3A A4C C23A G30A G33U C45G | 0.03
G2C C3A A16C G17A G30A U43C | 0.02
G2C C13A G17A C31A C42G | 0.02
G2C C10A C23A | 0.01
G2C C37A A39G C45U | 0.18
G2C C15A C18G A26U | 0.12
G2C C10A A16U C37A | 0.03
G2U A14G C18G | 0.02
G2C G27U C46U | 0.12
G2C U28A G29C | 0.1
G2C G7C G44A | 0.54
G2U A6G A14C U32A C45G | 0.02
G2C C3U G5C A12C C13A A39C | 0.05
G2C G7U C10G C46A | 0.02
G2C U20A G40U C45G | 0.03
G2U C3A A14U C18A A26U U32A G33A C37G C46A | 0.03

Variant | self-cleavage
G2U A6G G22A A25G G29U A39G | 0.01
G2C C10U A16U A41U | 0.01
G2C G29U G30C C42A U43A | 0
G2C A12C A25U A26G | 0
G2C C10A C31G G36U | 0.1
G2C U9A C10U G35U C37G | 0.07
G2C A14G G21C | 0.07
G2U A14G G30A A39G | 0.02
G2U C3U C10U G19C A25C A26U | 0.06
G2C A6C G17A G22C G33U | 0.02
G2C C15G U28G | 0.04
G2C A12C G30U C37U | 0.01
G2U A26U G36A | 0.03
G2C U34G G44U | 0.02
G2C C3U G27U U32A | 0.05
G2C G27A G29U C37A | 0.01
G2C C15U G17U C42U | 0.04
G2C A4U C15G G30C U43A | 0.01
G2U A6G G7C C8G A11U U20G G30U U43A | 0
G2C U9A A16G G35U C37U | 0.1
G2U A25C G29U U43A | 0.11
G2C A11G C15A C23U A26G | 0.02
G2U A14C C37U A41U | 0.01
G2C A4U C23A C37A | 0.05

Variant | self-cleavage
G2C G19A G33U A41G | 0.03
G2C A6U C18A U32G | 0.04
G2C A4U A25U C37U | 0.2
G2C G40C A41C | 0.09
G2C A6C C31U A41G | 0.04
G2C A4U A12C G19A G22C C23A A26C | 0.01
G2U C3A C10G A14U U34G | 0.03
G2U A11C C18A A25C G33C | 0
G2C G5U G44U | 0.1
G2C G5A A6G A16G G35U | 0.52
G2C A4U C8U U20C A39G | 0.07
G2C G22A C23G U28G U32C U38A U43A | 0.01
G2U A6C A12U | 0.04
G2U A6U A12G C13U U20C U28C U32A C46U | 0.01
G2C A12U G19A | 0.04
G2C G5A C13A | 0.07
G2C C3A U38C C42U | 0.07
G2C G27A G44U | 0.14
G2C C10A G30A C42A | 0.01
G2C A12C G21U | 0.01
G2C C15G C23U A25C G33U G36U | 0.05
G2U C3A U28C C31A | 0.21
G2C C10A C13A C18U A39C | 0.03
G2C G7C A24U A26G G40C G44A | 0.01

Variant | self-cleavage
G2C C18A U28A | 0.03
G2C U32A U34A | 0.18
G2C G7C G29A C37G U38A | 0.09
G2C G21U A26C G30A C45A | 0.21
G2C G29A G36A | 0.2
G2C A6G G21U C31G | 0.04
G2C U28C G33U G36A C45G | 0.03
G2C U9C A14C G19U G22U G27A | 0.01
G2C U9C A16C A26G U28A G40U | 0
G2C A11C G17U C23A | 0.02
G2C G27U G35C C45A | 0.03
G2C A24C G33A A39U | 0
G2C C10A G19C C23A | 0.01
G2C C3A G29A U34G | 0.06
G2C G27U U32A U34G | 0.01
G2U A4C C42G | 0.01
G2C C18G A25C | 0.06
G2U C3A G7C U9C A11C A12U A39C G40U | 0.01
G2C C13U C42U C46G | 0.06
G2C A12U A14C U20A | 0.02
G2C A26G U28C C42A | 0.01
G2C C15A C46G | 0.11
G2U A25G U28C | 0.02
G2C C3U U20G A25C | 0.03

Variant | self-cleavage
G2C A25C C46U | 0.19
G2C G30U U32G | 0.06
G2C A12C G40A | 0.01
G2C A6U G17C U32A U38A | 0.07
G2U C3U A24U | 0.35
G2U A11U A41G G44C | 0.02
G2C U9A G29U | 0.08
G2C G21C G22A C37U | 0
G2C G27C C31A | 0.04
G2C A11C C13U C23G A24U U28C | 0.01
G2C C13U A25G | 0.06
G2U A4G U43G | 0.15
G2C A16C U20G G44U | 0.02
G2C G5U C8U C18A C42U | 0.05
G2C A11G G21U C23A U43G C46A | 0.01
G2C A24G G40A | 0.01
G2U C3U G5U C10A G40U G44U | 0.02
G2U A12G A16C C31A U34A G36U | 0
G2U A6U G22U G27U | 0.07
G2U C3A C23G | 0.2
G2C A14C G27A G35A | 0.02
G2U A6U G7U U38A | 0.05
G2U A24C U28G C42A C46G | 0
G2U C3A C10A G22C G27A | 0.03

Variant | self-cleavage
G2U A4C C10A A25C G33U | 0.06
G2C G29C C46A | 0.15
G2C C31U A39U | 0.12
G2C C8U A16U U28A | 0.11
G2C A11U G21U | 0.04
G2C C15U C45A | 0.01
G2C C3U C8G | 0.04
G2U A11C U20G G29A C31G | 0
G2C G17U C18G C23A G35C C37U U43A C45A | 0.05
G2C A4G G30U | 0.02
G2C G21A C42U | 0.29
G2C G19A C46G | 0.58
G2C G7U U9A C13G U28G | 0.02
G2U A14G G40A | 0.01
G2C C13U A14G G33U G40A U43A | 0.03
G2C G17A G36A C45A | 0.2
G2C A6U G36A | 0.18
G2C G35A G36A | 0.06
G2U A11G A16G G17U G22U C42U | 0
G2C A12C G17U | 0.07
G2C U20C G30A | 0.12
G2C C10A C15G C23G U32A U34A A39C | 0
G2C G17U A26U U28G G40U | 0.22
G2U A11G G17U G27A G44A | 0.01

Variant | self-cleavage
G2C G22A G27A C46A | 0.18
G2C C10U C15A G19C G27A | 0.01
G2C C10U U28C G33C | 0.05
G2C C10A A24U | 0.02
G2C A4U A24C | 0.04
G2C A6C G7C | 0.08
G2C C31A G33A C45U | 0.01
G2C G19C C37U | 0.07
G2C A14U C15G C18A G19U G21U G30U U34C | 0.04
G2C G7A A11C G30A C37U | 0
G2U A24C U28G G35U G40U | 0.03
G2C A12U A24G G33C A39U | 0.01
G2U C3U G7A C8G C13U G36C | 0.12
G2U A25U C45G C46U | 0.27
G2C U9G A16U U34C | 0.02
G2C A6C U28A C31A | 0.03
G2U C3A C18A | 0.23
G2C A6G G7U A11U | 0.02
G2C C3A A4U A6U G21C A24U U32A U34C | 0.01
G2C C3A A14U U20C | 0.11
G2U A12U C13A A16C A25G | 0.04
G2C C3A A16U G29A | 0.12
G2C C10A A12G A25C A39G U43G | 0
